# Reference: patent US5760092A, “Allocolchinones and uses thereof” (Brandeis University, priority 1996, dated 1998)
# What was measured:
# [1] = tested on: A549/ATCC non-small cell lung cancer cells
# [2] = tested on: NCI-H23 non-small cell lung cancer cells
# [3] = tested on: SW-620 colon cancer cells
# M14 melanoma cells = settings: log10 conc -5.0
# [4] = tested on: OVCAR-4 ovarian cancer cells
# K-562 leukemia cells = test: cells; settings: Homo sapiens
# [5] = tested on: OVCAR-5 ovarian cancer cells
# TK-10 renal cancer cells [6] = tested on: TK-10 renal cancer cells
# [7] = tested on: MDA-MB-231/ATCC breast cancer cells
# [8] = tested on: MDA-N breast cancer cells; settings: log10 conc -4.0; 100 µM
# [9] = tested on: A549/ATCC non-small cell lung cancer cells; test: cells; settings: Homo sapiens
# [10] = tested on: EKVX non-small cell lung cancer cells; test: cells; settings: Homo sapiens
# [11] = tested on: HCC-2998 colon cancer cells; test: cells; settings: Homo sapiens, HCC 2998, read-out: Percent Growth, log10 conc -8.0
# [12] = tested on: HCT-15 colon cancer cells; test: cells; settings: Homo sapiens
# UACC-257 melanoma cells = test: cells; settings: Homo sapiens
# [13] = tested on: IGR-OV1 ovarian cancer cells; test: cells; settings: Homo sapiens
# [14] = tested on: OVCAR-4 ovarian cancer cells; test: cells; settings: Homo sapiens
# TK-10 renal cancer cells [15] = test: cells; settings: Homo sapiens
# UO-31 renal cancer cells = test: cells; settings: Homo sapiens
# [16] = tested on: PC-3 prostate cancer cells; test: cells
# [17] = tested on: DU-145 prostate cancer cells; test: cells; settings: Homo sapiens, DU-145, read-out: Percent Growth, log10 conc -8.0
# [18] = read-out: Percent Growth, log10 conc -7.0
# [19] = read-out: Percent Growth, log10 conc -8.0
compound,measurement,setting,value
CCCC(=O)NC1CCc2cc(OC)c(OC)c(OC)c2-c2ccc(C(C)=O)cc21 (stereo not shown),Percent Growth,"RPMI-8226 leukemia cells; log10 conc -5.0, 10 µM",9%
same,Percent Growth,"RPMI-8226 leukemia cells; log10 conc -7.0, 0.1 µM",12%
same,Percent Growth,"RPMI-8226 leukemia cells; log10 conc -8.0, 0.01 µM",15%
same,Percent Growth,"[1]; log10 conc -4.0, 100 µM",11%
same,Percent Growth,"[1]; log10 conc -5.0, 10 µM",18%
same,Percent Growth,"[1]; log10 conc -7.0, 0.1 µM",17%
same,Percent Growth,"[2]; log10 conc -4.0, 100 µM",-32%
same,Percent Growth,[2]; log10 conc -5.0,5%
same,Percent Growth,"[2]; log10 conc -6.0, 1 µM",4%
same,Percent Growth,"[2]; log10 conc -7.0, 0.1 µM",0% and 3%
same,Percent Growth,KM12 colon cancer cells; log10 conc -5.0,-27%
same,Percent Growth,"KM12 colon cancer cells; log10 conc -6.0, 1 µM",-32%
same,Percent Growth,"[3]; log10 conc -4.0, 100 µM",15%
same,Percent Growth,"[3]; log10 conc -7.0, 0.1 µM",26%
same,Percent Growth,"[3]; log10 conc -8.0, 0.01 µM",25%
same,Percent Growth,M14 melanoma cells,4%
same,Percent Growth,"SK-MEL-2 melanoma cells; log10 conc -4.0, 100 µM",17%
same,Percent Growth,"SK-MEL-2 melanoma cells; log10 conc -6.0, 1 µM",4% and -3%
same,Percent Growth,"SK-MEL-2 melanoma cells; log10 conc -7.0, 0.1 µM",-9% and -4%
same,Percent Growth,"UACC-62 melanoma cells; log10 conc -4.0, 100 µM",20%
same,Percent Growth,"UACC-62 melanoma cells; log10 conc -6.0, 1 µM",30%
same,Percent Growth,"UACC-62 melanoma cells; log10 conc -7.0, 0.1 µM",30%
same,Percent Growth,"UACC-62 melanoma cells; log10 conc -8.0, 0.01 µM",28%
same,Percent Growth,"[4]; log10 conc -4.0, 100 µM",13%
same,Percent Growth,"[4]; log10 conc -5.0, 10 µM",42%
same,Percent Growth,"[4]; log10 conc -7.0, 0.1 µM",51%
same,Percent Growth,"[4]; log10 conc -8.0, 0.01 µM",58%
same,activity at 100 µM,"K-562 leukemia cells; K562, read-out: Percent Growth, log10 conc -4.0",4%
same,activity at 10 µM,"K-562 leukemia cells; K562, read-out: Percent Growth, log10 conc -5.0",7%
same,activity at 1 µM,"K-562 leukemia cells; K562, read-out: Percent Growth, log10 conc -6.0",6%
same,activity at 0.1 µM,"K-562 leukemia cells; K562, read-out: Percent Growth, log10 conc -7.0",4%
same,activity at 0.01 µM,"K-562 leukemia cells; K562, read-out: Percent Growth, log10 conc -8.0",6%
same,Percent Growth,"[5]; log10 conc -4.0, 100 µM",8%
same,Percent Growth,"[5]; log10 conc -5.0, 10 µM",22%
same,Percent Growth,"[5]; log10 conc -6.0, 1 µM",26%
same,Percent Growth,"[5]; log10 conc -7.0, 0.1 µM",25%
same,Percent Growth,"786-0 renal cancer cells; log10 conc -4.0, 100 µM",4% and 12%
same,Percent Growth,"786-0 renal cancer cells; log10 conc -5.0, 10 µM",24%
same,Percent Growth,"786-0 renal cancer cells; log10 conc -6.0, 1 µM",25%
same,Percent Growth,"786-0 renal cancer cells; log10 conc -7.0, 0.1 µM",31%
same,Percent Growth,"786-0 renal cancer cells; log10 conc -8.0, 0.01 µM",35%
same,Percent Growth,"SN12C renal cancer cells; log10 conc -5.0, 10 µM",14%
same,Percent Growth,"SN12C renal cancer cells; log10 conc -7.0, 0.1 µM",14%
same,Percent Growth,"SN12C renal cancer cells; log10 conc -8.0, 0.01 µM",15%
same,Percent Growth,"TK-10 renal cancer cells [6]; log10 conc -4.0, 100 µM",26%
same,Percent Growth,"TK-10 renal cancer cells [6]; log10 conc -5.0, 10 µM",79%
same,Percent Growth,"TK-10 renal cancer cells [6]; log10 conc -6.0, 1 µM",81%
same,Percent Growth,"TK-10 renal cancer cells [6]; log10 conc -7.0, 0.1 µM",77%
same,Percent Growth,TK-10 renal cancer cells [6]; log10 conc -8.0,78%
same,Percent Growth,"TK-10 renal cancer cells [6]; log10 conc -8.0, 0.01 µM",53%
same,Percent Growth,"[7]; log10 conc -4.0, 100 µM",18%
same,Percent Growth,"[7]; log10 conc -5.0, 10 µM",2%
same,Percent Growth,"[7]; log10 conc -6.0, 1 µM",0% and -1%
same,Percent Growth,"[7]; log10 conc -7.0, 0.1 µM",0% and -10%
same,Percent Growth,[8],-46%
same,activity at 100 µM,"[9]; A549, read-out: Percent Growth, log10 conc -4.0",13%
same,activity at 10 µM,"[9]; A549, read-out: Percent Growth, log10 conc -5.0",12%
same,activity at 1 µM,"[9]; A549, read-out: Percent Growth, log10 conc -6.0",12%
same,activity at 0.1 µM,"[9]; A549, read-out: Percent Growth, log10 conc -7.0",14%
same,activity at 100 µM,"[10]; read-out: Percent Growth, log10 conc -4.0",27%
same,activity at 10 µM,"[10]; read-out: Percent Growth, log10 conc -5.0",28%
same,activity at 1 µM,"[10]; read-out: Percent Growth, log10 conc -6.0",32%
same,activity at 0.1 µM,[10]; [18],21%
same,activity at 0.01 µM,[10]; [19],23%
same,activity at 0.01 µM,[11],36%
same,activity at 100 µM,"[12]; HCT-15, read-out: Percent Growth, log10 conc -4.0",8%
same,activity at 10 µM,"[12]; HCT-15, read-out: Percent Growth, log10 conc -5.0",-15%
same,activity at 1 µM,"[12]; HCT-15, read-out: Percent Growth, log10 conc -6.0",-12%
same,activity at 0.1 µM,"[12]; HCT-15, read-out: Percent Growth, log10 conc -7.0",-17%
same,activity at 0.01 µM,"[12]; HCT-15, read-out: Percent Growth, log10 conc -8.0",6%
same,activity at 10 µM,"UACC-257 melanoma cells; UACC-257, read-out: Percent Growth, log10 conc -5.0",34%
same,activity at 1 µM,"UACC-257 melanoma cells; UACC-257, read-out: Percent Growth, log10 conc -6.0",41%
same,activity at 0.1 µM,"UACC-257 melanoma cells; UACC-257, read-out: Percent Growth, log10 conc -7.0",36%
same,activity at 0.01 µM,"UACC-257 melanoma cells; UACC-257, read-out: Percent Growth, log10 conc -8.0",49%
same,activity at 10 µM,"[13]; IGROV-1, read-out: Percent Growth, log10 conc -5.0",21%
same,activity at 1 µM,"[13]; IGROV-1, read-out: Percent Growth, log10 conc -6.0",16%
same,activity at 0.1 µM,"[13]; IGROV-1, read-out: Percent Growth, log10 conc -7.0",14%
same,activity at 0.01 µM,"[13]; IGROV-1, read-out: Percent Growth, log10 conc -8.0",28%
same,activity at 100 µM,"[14]; OVCAR-4, read-out: Percent Growth, log10 conc -4.0",19%
same,activity at 10 µM,"[14]; OVCAR-4, read-out: Percent Growth, log10 conc -5.0",48%
same,activity at 1 µM,"[14]; OVCAR-4, read-out: Percent Growth, log10 conc -6.0",49%
same,activity at 0.1 µM,"[14]; OVCAR-4, read-out: Percent Growth, log10 conc -7.0",61%
same,activity at 0.01 µM,"[14]; OVCAR-4, read-out: Percent Growth, log10 conc -8.0",64%
same,activity at 100 µM,"TK-10 renal cancer cells [15]; TK-10, read-out: Percent Growth, log10 conc -4.0",25%
same,activity at 10 µM,"TK-10 renal cancer cells [15]; TK-10, read-out: Percent Growth, log10 conc -5.0",69%
same,activity at 1 µM,"TK-10 renal cancer cells [15]; TK-10, read-out: Percent Growth, log10 conc -6.0",83%
same,activity at 0.1 µM,"TK-10 renal cancer cells [15]; TK-10, read-out: Percent Growth, log10 conc -7.0",68%
same,activity at 10 µM,"UO-31 renal cancer cells; UO-31, read-out: Percent Growth, log10 conc -5.0",22%
same,activity at 1 µM,"UO-31 renal cancer cells; UO-31, read-out: Percent Growth, log10 conc -6.0",24%
same,activity at 0.1 µM,"UO-31 renal cancer cells; UO-31, read-out: Percent Growth, log10 conc -7.0",38%
same,activity at 0.01 µM,"UO-31 renal cancer cells; UO-31, read-out: Percent Growth, log10 conc -8.0",53%
same,activity at 0.1 µM,[16]; [18],8%
same,activity at 0.01 µM,[16]; [19],17%
same,activity at 0.01 µM,[17],5%

# Where “and” joins values, the source holds several entries; their conditions need not be identical. Equal entries are not always repeated. Where two headings read alike, the source gives them in different places.
